Source: PubChem BioAssay AID493208 (National Center for Advancing Translational Sciences (NCATS), 2011)
About 340 (0.77%) of roughly 44,000 compounds were called active. Another 5% or so got no clear call; they are omitted. Calls follow the shape of the dose curve; as a rule, active = well fitted inhibition curve with a large enough effect; inconclusive = small, poorly fitted or top-dose-only effect; inactive = flat fitted curve, though single readings scatter. Some of the results follow.

Assay: Acumen qHTS Assay for Inhibitors of the mTORC1 Signaling Pathway in MEF (Tsc2-/-, p53-/-) Cells: Sytravon; also: nearly all actives have a fitted effect of over 50% in size
Conditions: phospho-rpS6 immunofluorescence/PI, 24 h; series mostly up to 38.3 µM; activity change, negative = inhibition: at the top concentration
From the text: NIH Molecular Libraries Probe Production Centers Network [MLPCN] NIH Chemical Genomics Center [NCGC] MLPCN Grant: NS059428-01 Assay Submitter (PI): Blenis, John; Hoffman, Greg; Harvard University NCGC Assay Overview: The mammalian target of rapamycin (mTOR) is an intracellular serine/threonine kinase Aberrant regulation of mTOR signaling plays a causative role in a number of human diseases, including cancer, benign tumors such as lymphangioleiomyomatosis (LAM) and Tuberous Sclerosis Complex (TSC), and metabolic diseases such as diabetes and obesity. This project aims to identify inhibitors of ribosomal protein S6 (rpS6) phosphorylation. The phosphorylation of rpS6 is a key event downstream of mTOR activation. The assay uses a phospho-specific antibody of phospho-rpS6 to detect inhibitors of mTOR activation. Mutations in the Tsc1 and Tsc2 genes are the underlying genetic lesions responsible for TSC, causing constitutive activation of the mTORC1 pathway and leading to profound effects on cell metabolism. Aberrant metabolism in cancer has recently received significant attention as a target to develop therapeutic agents in the treatment of cancer.1 As Tsc2-/- cells have lost the ability to respond to energy and growth factor deprivation, these cells are unable to properly down regulate cellular biosynthetic processes in response to metabolic stress, and are thus extremely sensitive to glucose deprivation-induced death.2 A central goal of this project is to explore the unique cell survival and metabolic properties of cells with Tsc1 or Tsc2 by screening for compounds that selectively target the Tsc2-/- MEFs by screening both Tsc2-/- and WT MEF cell lines. We hope to better understand these aspects of TSC physiology in order to exploit them for therapeutic benefit.
NCGC Acumen Assay Protocol Summary: For quantitative high throughput analysis of mTORC1 signaling, we developed a cell-based assay for immuno-fluorescence based detection of rpS6 phosphorylation on the Acumen Explorer that will be used a platform for the primary small molecule screen. Mouse embryonic fibroblasts (MEFs) are cultured in 1536-well plates using DMEM + 10% FBS. Twenty-four hrs after plating, test compounds (solubilized in DMSO) are delivered and incubated with the cells for 24 hrs at 37 degree Celsius. Following the incubation, media with compound is aspirated and the cells are fixed in 4% paraformaldehyde (PFA) containing PBS + 0.2% TX-100. Next, PFA is aspirated, cells are washed two times with PBS plus 0.2% TX-100 and the cells are blocked for 1 hr at room temperature (blocking buffer: LiCOR Blocking Buffer plus 0.2% TX-100). […] Cells are washed two times with PBS plus 0.2% TX-100, and stained with 10 uM propidium iodide (PI) for 20-25 minutes for cell number measurement (1:500 dilution of Hoescht staining is also added for IN Cell imaging). The plates are scanned on the Acumen Explorer laser scanning instrument (TTP Labtech) using the 488nm laser for simultaneous excitation of the Alexa-488 and PI. […] The normalized phospho-S6 staining is calculated as the ratio of the integrated Alexa 488 intensity divided by the integrated PI intensity for the single concentration rapamycin control (7.5 nM) and DMSO columns. […] Inhibition of the pathway is defined based on the normalized phospho-S6 intensity in rapamycin treated cells. Active cells are defined as those with a normalized phospho-S6 staining above this threshold, and each treatment is reported as the % positive cells in the well, where thresholds are defined by selecting wells with the highest and lowest signal and differentiating between the % non-active and % active populations. In addition to the pathway specific phospho-S6 endpoint, the number of PI stained cells from the Acumen is recorded as a measure of cell viability. The primary screen was performed with a MEF cell line in a defined genetic background, Tsc2-/-, p53-/- cell line stably transfected with an empty vector control (Tsc2-/- MEF).

Activity change, negative = inhibition, inactive:
Cc1ccc(S(=O)(=O)C(CNC(=O)Cc2ccc(Cl)cc2)c2cccs2)cc1 (stereo not drawn) 3.97%
Cc1cccc(Cn2c(=O)n(Cc3ccc4c(c3)OCO4)c(=O)c3oc4ccccc4c32)c1 -1.05%
CCc1ccccc1NC(=O)c1cc2nc(-c3ccc(OC)c(OC)c3)cc(C(F)(F)F)n2n1 2.19%
CCOc1ccc(CNC(=O)c2ccc3c(c2)nnn3C2CCCC2)cc1 5.48%
COc1ccccc1N1CCN(C(=O)Nc2cn(CC(C)C)c(=O)c3ccccc23)CC1 6.56%
CCOCCCNC(=O)c1c(NC(=O)c2cc(=O)c3ccccc3o2)sc2c1CCC2 2.78%
O=c1oc2c(CN3CCCC3)c(O)ccc2cc1-c1ccccc1 -6.26%
CC(C)C(=O)Nc1cccc(C(=O)Nc2nnc(CC(C)(C)C)s2)c1 -5.56%
CCOC(=O)c1ccc(NC(=O)Cn2ncc3c(C)n(Cc4ccccc4F)c(C)c3c2=O)cc1 1.26%
COc1cc2ccccc2cc1C(=O)Nc1ccc2oc(-c3ccc(Cl)cc3)nc2c1 -13.7%
O=C(Nc1ccc(C(=O)OCc2cc(=O)n3c4c(sc3n2)CCCC4)cc1)c1ccc(Cl)cc1 3.97%
CC(C)c1ccc(NC(=O)Nc2csc3c2CCCC3)cc1 3.49%
Cc1ccc2c(=O)cc(C(=O)Nc3c(C(=O)Nc4cccc(Cl)c4)oc4ccccc34)oc2c1 7.63%
COc1ccc(NC(=O)c2c(NCc3cccs3)sc3c2CCCC3)cc1 1%
CCOc1cccc(NC(=O)C2CC(=O)N(C)C(=Nc3ccc(F)cc3)S2)c1 (stereo not drawn) -15.2%
O=C(c1ccc(Br)s1)N(Cc1cccnc1)c1nc2ccc(F)cc2s1 -0.0162%
CCOc1ccccc1NC(=O)CN1C(=O)COc2ccc(S(=O)(=O)N3CCCCC3)cc21 -5.53%
Cc1ccc(N2C(=O)CSC23C(=O)N(CC(=O)NC2CCCCC2)c2ccccc23)cc1C (stereo not drawn) 5.08%
Cn1cc(C(c2ccccc2)c2ccc(Cl)s2)c2ccccc21 (stereo not drawn) 1.13%
Cc1ccc2nc(COc3ccccc3NC(=O)COc3ccccc3Cl)cc(=O)n2c1 -27.8%
Cc1ccc(CNC(=O)C2CCN(S(=O)(=O)c3c(C)noc3/C=C/c3c(C)cc(C)cc3C)CC2)cc1 -14.2%
CSc1ncc(C(=O)NCc2ccc(C)cc2)c(-c2ccccc2)n1 -5.39%
CCNC(=O)C1CCN(Cc2cc3ccccc3n2Cc2ccc(C)cc2)CC1 -10.6%
CCOC(=O)c1c(C)oc2nc(C)nc(N3CCN(c4ccc(OC)cc4)CC3)c12 -9.52%
CCOc1ccccc1CNC(=O)CCCN1C(=O)c2cccnc2Oc2ccc(Cl)cc21 -0.13%
COc1ccccc1Cn1c(SCC(=O)C(C)(C)C)nc2ccccc2c1=O -4.43%
COC(=O)CN1C(C(=O)c2ccccc2)=C(OC(=O)c2ccc(C)cc2)c2ccccc2S1(=O)=O 2%
O=C(c1cccn1-c1nnc(N2CCCCC2)s1)N1CCN(c2ccccc2)CC1 1.22%
CCn1c(=O)c2sccc2n2c(CCC(=O)NCc3ccc(Cl)cc3)nnc12 -7.49%
CCS(=O)(=O)c1ccccc1C(=O)N1CCN(c2nc3ccccc3s2)CC1 -3.3%
N#Cc1ccc(CSc2nnc(-c3ccc(Br)cc3)o2)cc1 1.9%
CCOC(=O)C1CCN(C(=O)Cn2ncc3c4ccccc4n(C)c3c2=O)CC1 -2.15%
COc1ccc(CNC(=O)CCCN2C(=O)c3cccnc3Oc3ccc(Cl)cc32)cc1 -6.5%
Cc1oc(-c2cccc(Cl)c2)nc1CSCC(=O)NCc1ccccc1Cl 1.7%
Cc1ccc(-n2c(SCC(=O)Nc3ccc4c(c3)OCCO4)nc3c([nH]c4ccccc43)c2=O)cc1 -5.19%
Cc1cccc(NS(=O)(=O)c2nnc(NC(=O)c3cccc(C)c3)s2)c1 6.04%
COCCNC(=O)c1ccc(-c2nc(CN3CCc4ccccc43)c(C)o2)cc1 -11.1%
Cc1ccc(OCC(=O)Nc2sc3c(c2C(N)=O)CCCC3)c(C(C)(C)C)c1 1.51%
Cc1csc2nc(COC(=O)c3ccc(NC(=O)C(C)C)cc3)cc(=O)n12 0%
CC(C)OCCCNC(=O)CN1C(=O)COc2ccc(S(=O)(=O)N3CCOCC3)cc21 -10.4%
COc1ccccc1NC(=O)c1ncoc1-c1ccco1 15.4%
Cc1cccc(NC(=O)c2cc3c(=O)n4ccccc4nc3n2C)c1C -0.121%
CCCCNC(=O)Cn1cnc2sc(C)c(S(=O)(=O)N3CCN(c4ccccc4OC)CC3)c2c1=O -2.01%
O=C(Cn1ncc2c3ccccc3n(Cc3ccccc3F)c2c1=O)NCCCc1ccccc1 0.443%
CCOc1ccc2nc(NC(=O)c3ccccc3)sc2c1 -5.25%
COC(=O)c1ccccc1NC(=O)CSc1nc2nc(C)cc(C)n2n1 -34.1%
Cc1ccc(C(=O)Nc2ccc(Br)cc2)cc1S(=O)(=O)NCc1ccccc1 2.12%
COc1ccc(-c2nc3ccccc3s2)cc1NC(=O)COc1cccc(C)c1 -1.36%
O=c1c(N2CCCCC2)csc2ccc(F)cc12 3.74%
CCc1nc2ccc(C(=O)NCc3cccc(Br)c3)cc2nc1CC 0.673%
CCc1ccc(S(=O)(=O)Nc2cc3c(cc2N2CCOCC2)n(C)c(=O)c(=O)n3C)cc1 -4.08%
CCOc1ccc(NC(=O)C(=O)NCCc2ccccc2)cc1 -11.3%
O=C(Cn1c(=O)n(CCCS(=O)(=O)C2CCCCC2)c(=O)c2ccccc21)Nc1ccc(F)c(Cl)c1 0.346%
COc1ccc(C)cc1NC(=O)N1CCN(c2nnc(C)c3c(C)n(-c4ccccc4)nc23)CC1 -2.03%
O=C(c1cnc(N2CCCCC2)c2ccccc12)N1CCN(c2cccc(Cl)c2)CC1 -4%
COCCCNC(=O)c1nn(-c2ccc(C)cc2)c(=O)n(C)c1=O 3.13%
CCOc1ccc(NC(=O)CC2C(=O)N(c3ccccc3)C(=O)N2Cc2cccc(OC)c2)cc1 (stereo not drawn) 0.0831%
CCOc1ccccc1NC(=O)CCc1c(C)nc2c3cccnc3nn2c1C -0.542%
CCc1cccc(NC(=O)Cn2ncc3c([nH]c4ccc(C)cc43)c2=O)c1 -3.2%
CCCCNc1sc(S(=O)(=O)CCC)nc1S(=O)(=O)c1ccc(C)cc1 -5.88%
Cc1ccc(CN2C(=O)c3ccccc3Sc3ccc(C(=O)NC4CCCC4)cc32)cc1 14%
CCNC(=O)c1c2c(nc3ccccc13)C(=O)N(C1CCCCC1)C2 0.74%
O=C(Cn1c(SCc2ccccc2F)nc2cccnc21)Nc1ccc(F)c(Cl)c1 1.12%
